Measurements taken from PubChem BioAssay AID1645887 (National Center for Advancing Translational Sciences (NCATS), 2021).
Several values for one entry are separate records, joined by “and”; a condition that tells them apart may be missing. Equal entries are not always repeated. The campaign covered roughly 16,000 compounds. About 40 (0.2%) were called active. About 1% were inconclusive and are not listed. Calls follow the shape of the dose curve; as a rule, active = well fitted activation curve with a large enough effect; inconclusive = small, poorly fitted or top-dose-only effect, or another doubt; inactive = no such curve, though single readings can be large or run the other way. The list shows a part of the results.

These molecules were tested against Rap guanine nucleotide exchange factor 4 (Homo sapiens) (UniProt Q8WZA2) (assay: Validation qHTS for agonist of cAMP-regulated guanine nucleotide exchange factor 4 (EPAC2)). Conditions: EPAC2 Rap1B BODIPY-GDP exchange, fluorescence; activation: active compounds read high.
UniProt Q8WZA2, sequence (Q8WZA2 whole entry, looked up): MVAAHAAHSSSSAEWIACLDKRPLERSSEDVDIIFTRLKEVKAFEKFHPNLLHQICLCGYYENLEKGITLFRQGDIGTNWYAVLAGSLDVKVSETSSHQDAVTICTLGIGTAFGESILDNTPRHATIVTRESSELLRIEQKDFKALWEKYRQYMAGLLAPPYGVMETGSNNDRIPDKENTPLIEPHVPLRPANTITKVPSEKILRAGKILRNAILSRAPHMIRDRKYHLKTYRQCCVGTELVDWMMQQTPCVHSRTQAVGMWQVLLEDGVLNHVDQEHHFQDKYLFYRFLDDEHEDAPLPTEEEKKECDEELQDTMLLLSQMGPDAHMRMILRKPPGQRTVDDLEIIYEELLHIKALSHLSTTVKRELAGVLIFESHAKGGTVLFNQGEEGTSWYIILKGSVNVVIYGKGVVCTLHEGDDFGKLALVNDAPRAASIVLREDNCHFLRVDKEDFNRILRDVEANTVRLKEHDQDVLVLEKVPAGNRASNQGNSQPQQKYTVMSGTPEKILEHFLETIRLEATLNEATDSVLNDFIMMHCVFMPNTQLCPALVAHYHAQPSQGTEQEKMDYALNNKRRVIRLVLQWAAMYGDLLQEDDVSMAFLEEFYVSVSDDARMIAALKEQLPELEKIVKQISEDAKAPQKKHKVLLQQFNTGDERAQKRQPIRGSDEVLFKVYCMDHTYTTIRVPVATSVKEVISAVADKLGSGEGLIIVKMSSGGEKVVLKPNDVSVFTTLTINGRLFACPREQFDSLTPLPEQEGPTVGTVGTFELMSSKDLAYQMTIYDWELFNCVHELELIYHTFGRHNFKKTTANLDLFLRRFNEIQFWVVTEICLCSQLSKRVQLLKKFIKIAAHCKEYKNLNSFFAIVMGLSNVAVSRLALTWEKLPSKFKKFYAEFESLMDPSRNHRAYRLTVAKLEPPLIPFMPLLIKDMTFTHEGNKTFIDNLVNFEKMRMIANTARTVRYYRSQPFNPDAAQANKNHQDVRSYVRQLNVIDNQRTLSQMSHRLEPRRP
Text: Principle Investigator: Xiaodong Cheng Ph.D.
The University of Texas Medical Branch, […], TX
In multi-cellular eukaryotic organisms, the effects of cAMP are transduced by two ubiquitously-expressed intracellular cAMP receptors, the classic protein kinase A/cAMP-dependent protein kinase (PKA/cAPK) and the more recently discovered exchange protein directly activated by cAMP/cAMP-regulated guanine nucleotide exchange factor (EPAC/cAMP-GEF). Both PKA and EPAC are ubiquitously expressed in all tissues, and an increase in intracellular cAMP levels will lead to the activation of both PKA and EPAC. Therefore, careful dissections of the individual role and relative contribution of EPAC and PKA within the overall cAMP signaling in various model systems are critical for further elucidating the mechanism of cAMP signaling. To date no EPAC-specific antagonists and agonist, as well as isoform-specific agonists have been reported, and developing EPAC-specific pharmacological probes to determine the physiological functions that EPAC play in the overall cAMP-mediated signaling remains a major challenge within the research field. Furthermore, identified regulators of EPAC may lead to new mechanism-based therapeutic strategies specifically targeting the EPAC / cAMP-signaling components as EPAC has been implicated to play important roles in major human pathological conditions such as diabetes, heart disease, and cancer.
This qHTS will be used to screen the Molecular Libraries Small Molecule Repository (MLSMR) as a concentration-titration series using the NCGC unique quantitative screening (qHTS) platform to find activators for EPAC1. In addition, this assay will also be used as a counterscreen for the EPAC2 qHTS. This fluorescent based assay is developed and validated for EPAC1 that measures exchange using EPAC effector Rap1 complex with BODIPY-GDP, a GDP analog with a tethered fluorophores. Activators are identified by monitoring the change in fluorescence signal as the exchanged free BODIPY-GDP has a reduced fluorescence compared to Rap1-bound BODIPY-GDP. Increase in signal (activation) is the desired outcome for the EPAC1 agonist while no activity in this assay is desired for the EPAC2 agonist counterscreen.
[1] de Rooij, J., Zwartkruis, F. J., Verheijen, M. H., Cool, R. H., Nijman, S. M., Wittinghofer, A., and Bos, J.L. (1998) Nature 396, 474-477.
Briefly, three uL of reagents (100 nM EPAC2, 250 nM RAP1B-BODIPY-GDP, 50 uM GDP) were dispensed into a 1536-well Greiner black solid-bottom medium binding assay plate. Controls and test compounds (23 nL) were transferred to the plate via a Kalypsys pin tool equipped with a 1536-pin array. The plates were centrifuged at 1,000 rpm for 15 seconds followed by 5 minute incubation at room temperature. The assay plates were read at 5 minute intervals for 30 minutes in the ViewLux plate reader using 480nm excitation and 540nm emission filters. The results were normalized to the agonist positive control of 6.5 mM cAMP.
% is scaled to controls: 0 for no effect and ±100 for the full control effect.
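Also: exchange makes BODIPY-GDP fluorescence drop when released from Rap1B; series mostly up to about 150 µM.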

activation, inactive:
O=C(O)/C=C1\CCCc2ccccc2[C@H]1O -6.9%
Cc1nc2cnc(N3CCOCC3)nc2n(CCC#N)c1=O -1.48%
C[C@]12CC[C@@H]3c4ccc(O)cc4CC[C@H]3[C@@H]1C[C@@H](O)[C@@H]2O 10.1%
CC[C@@H](C)[C@H](NS(=O)(=O)c1cccc2ccccc12)C(=O)N[C@H](C=O)Cc1c[nH]c2ccccc12 -17.9%
CN(C)CCCO[C@@H]1[C@H]2OC(C)(C)O[C@H]2O[C@@H]1[C@H](O)CO -29.4%
COc1cc(=O)n2c(c1C(=O)NCc1ccco1)CCN(C(=O)c1c(F)ccc(F)c1F)CC2 5.07%
COc1ccccc1CNc1ncnc2ccc(-c3cccnc3)cc12 5.82%
CCCCN1CCCC1C(=O)Nc1c(C)cc(C)cc1C (centres undefined) -21.2%
COc1ccccc1-c1ccc(C(=O)N2CCC(N3CCc4ccccc4C3)CC2)c(N(C)CC2COCCO2)n1 (centres undefined) -11.7%
CC[N+](CC)(CC)CCC(O)(c1ccccc1)C1CCCCC1 (centres undefined) 5.6%
CC(C)C(NS(C)(=O)=O)c1nnc2n1CCN(Cc1ccc3cccnc3c1)CC2 (centres undefined) -7.22%
CC1(C)OC(=O)C=C[C@@]2(C)C1C[C@@H](O)[C@]1(C)C2CC[C@@]2(C)C(c3ccoc3)OC(=O)[C@H]3O[C@]321 (some centres undefined) -9.01%
CCCCC(=O)O[C@]1(C(=O)CO)CC[C@H]2[C@@H]3CCC4=CC(=O)CC[C@]4(C)[C@H]3[C@@H](O)C[C@@]21C -2.81%
Cc1noc(NS(=O)(=O)c2ccc(N)cc2)c1C -4.03% [middle of 4 runs]
Cn1c(=O)c(-c2ccc(F)cc2)nc2cncnc21 -3.2%
CCc1cccc2c3c([nH]c12)C(CC)(CC(=O)O)OCC3 (centres undefined) -4.81% and 0.321% and -36.7%
Cc1nc2cnc(Oc3cccc(Cl)c3)nc2n(CCC#N)c1=O -9.57%
CCOC(=O)[C@H](CS)NCCN[C@@H](CS)C(=O)OCC -5.28%
COC(=O)c1cn([C@@H]2C[C@@H](C(=O)Nc3cccc(SC)c3)N(C3CCCC3)C2)nn1 -18.7%
COc1ncc2nc(-c3ccc(Cl)cc3)c(=O)n(CCc3ccccc3)c2n1 0.414%
CCn1c(-c2ccccc2F)nc2cc(NC(C)=O)cc(C(=O)N(C)Cc3ccccn3)c21 -13.5%
COc1cc(=O)n2c(c1C(=O)NC(C)c1ccco1)CCN(Cc1ccccc1C(F)(F)F)CC2 (centres undefined) -2.23%
Cn1cc(S(C)=O)c(=O)c2ccc(F)cc21 (centres undefined) -0.393%
COc1ccccc1/C=c1/[nH]c(=O)/c(=C\c2ccccc2OC)[nH]c1=O -6.37%
CC1=C(C(=O)OCc2ccccc2)N2C(=O)[C@@H](NC(=O)OCc3ccccc3)[C@H]2SC1 -3.49%
COCC(=O)Nc1cc(C(=O)NC2C3CC4CC2CC(O)(C4)C3)cc2nc(-c3ccccc3)n(C)c12 (centres undefined) -1.9%
Nc1nc2c(nc(Cl)n2C2OC(CO)C(O)C2O)c(=O)[nH]1 (centres undefined) -7.68%
CN1CCN(c2ncc3nc(-c4cn(C)c5ccccc45)c(=O)n(C)c3n2)CC1 -14.6%
COCC(=O)Nc1cc(C(=O)N2CCN(C)C(c3ccccc3)C2)c2c(c1)nc(-c1ccncc1)n2C (centres undefined) -2.17%
COc1ccc(CN2CCCC(n3cc(C(=O)N4CCCCC4)nn3)C2)cc1OC (centres undefined) -3.11%
CN(C)CC/C=C1\c2ccccc2COc2ccccc21 -12.4% and -10.9% and -8.75%
Cc1cc(-c2ccnc(-n3ncc(C(=O)NCC4COCCO4)c3C)n2)c(C)s1 (centres undefined) -7.47%
Cc1cnccn1 -9.37%
CC(C)NC(=O)N1CCCC2(CCN(C(=O)c3ccncc3)CC2)C1 -31.8%
O=S(c1cc(Cl)cc(Cl)c1O)c1cc(Cl)cc(Cl)c1O -13.2%
O=C(O)CCC/C=C\C[C@@H]1C(/C=C/[C@@H](O)COc2cccc(C(F)(F)F)c2)[C@@H](O)C[C@@H]1O (some centres undefined) 6.27%
CCCCC[C@H](O)/C=C/C=C\C=C\C=C\[C@@H](O)[C@@H](O)CCCC(=O)O 2.98%
CC[C@H](NC(C)C)[C@H](O)c1ccc(O)c2[nH]c(=O)ccc12 -19.4% and 4.05%
CCCCCCCC(=O)O 11.1%
O=C(O)CNC(=O)c1ccccc1I -3.11%
Cn1cc(/C=C/c2ccc3ccccc3n2)c2ccccc21 -30%
Cc1nc2cnc(N(C)C)nc2n(CCc2ccccc2)c1=O 0.0357%
CCCn1c(=O)c2[nH]c(-c3ccc(S(=O)(=O)O)cc3)nc2n(CCC)c1=O -37.3%
COc1cc(=O)n2c(c1C(=O)N(C)Cc1cscn1)CCN(Cc1c(C)[nH]c3ccccc13)CC2 -8.83%
O=C1N(c2ccccc2)c2ccccc2C1(Cc1ccncc1)Cc1ccncc1 -12.3% and -11.3% and -9.62%
Cc1cnc(C)c(-c2cc(F)cc3c2OC(CNC(=O)Cc2c(C)noc2C)C3)n1 (centres undefined) -5.32%
COc1ccc(-c2coc3c(OC)c(OC)cc(O)c3c2=O)cc1 3.76%
C=C1[C@@H](O)CN(Cc2ccc(OC)cc2)S1(=O)=O -3.65%
COCCn1c(=O)c(-c2cc(F)cc(F)c2)nc2cnc(Oc3ccccc3)nc21 -11.9%
CC(C)COC(=O)c1ccc(N)cc1 -20%
COc1ccc(C(=O)c2ccc(O)cc2)c(O)c1O -11.3%
CCC1CN(CCNC(=O)c2cc(C(C)C)nn2C)Cc2cc(OC)ccc2O1 (centres undefined) -3.89%
CCN(CC)C1CCN(C(=O)c2cnn(-c3ncc4c(n3)-c3ccccc3CCC4)c2COC)C1 (centres undefined) 20.6%
CCCCCCCC/C=C\CCCCCCCC(=O)OC[C@@H](O)[C@H]1OC[C@H](O)[C@H]1O -13.9%
COc1ccc(Oc2ncc3nc(-c4cn(C)c5ccccc45)c(=O)n(C4CC4)c3n2)cc1 -1.65%
COC(c1ccc2c(c1)CN(C(=O)Cn1nc(C)c3ccccc3c1=O)CCO2)C1CCCCC1 (centres undefined) -14.5%
OC[C@H]1O[C@@](CO)(O[C@H]2O[C@H](CO)[C@@H](O)[C@H](O)[C@H]2O)[C@@H](O)[C@@H]1O -13.5%
CC(=O)NCCNc1ncnc2ccc(-c3ccoc3)cc12 -18.2%
COc1ccc2c(c1)OCC(Cc1ccc(OC)c(OC(C)=O)c1)C2=O (centres undefined) -8.42%
COC(=O)C[C@H]1c2cc(C(F)(F)F)ccc2S(=O)(=O)N1C(C)(C)C -37.2%
COc1cccc(CNC(=O)c2c(OC)cc(=O)n3c2CCN(C(=O)C2CC24CCCC4)CC3)c1 (centres undefined) -16.3%
O=C(c1cccc(F)c1)N1CCC2(CCCN(C(c3ccccc3)c3ccccc3)C2)CC1 -16.6%
COc1ccc(-n2c(=O)c(C)nc3cnc(N(C)C)nc32)cc1 -8.07%
O=C1C(=O)c2ncccc2-c2cccnc21 -6.56%
OCCOCCN1CCN(C(c2ccccc2)c2ccc(Cl)cc2)CC1 (centres undefined) -8.4%
C[C@]12CCC(=O)C[C@@H]1CC[C@@H]1[C@@H]2CC[C@]2(C)C=CC[C@@H]12 10%
O=C(O)c1ccc2c3c1cccc3c(=O)n1c3ccccc3nc21 -2%
O=C(Nc1cccc(F)c1)N1CC[C@@]2(CCCN(C(=O)c3csnn3)C2)C1 -9.14%
CC(=O)Oc1c(C)c(C)c2c(c1C)CCC(C)(CCCC(C)CCCC(C)CCCC(C)C)O2 (centres undefined) -11.6% and -7.26%
COc1ccc(C(=O)N2CCC3(CCN(Cc4ccc(C#N)cc4)CC3)CC2)cc1 -8.12%
COC(=O)c1ccc(C(=O)NCC2Cc3cc(F)cc(-c4cncnc4)c3O2)cc1 (centres undefined) -5.56%
Cc1cccc2c3c(ccc12)C1=C(C(=O)C3=O)C(C)CO1 (centres undefined) -37.5%
CCCCCCCCCCCC(=O)OC[C@@H](O)C1OC[C@H](O)[C@H]1O (some centres undefined) -67.6%
Nc1cccc2c1CN(C1CCC(=O)NC1=O)C2=O (centres undefined) -9.46%
CCCCCCCCCCCCCCCC(C)C1=NCCN1 (centres undefined) -12.9%
O=C(c1ccc(Cl)cc1)N1CCN(c2ccc([N+](=O)[O-])c3ncccc23)CC1 -40.2%
COC(=O)[C@@H]1N2C(=O)[C@@H](NC(=O)C(C)Oc3ccccc3)[C@H]2SC1(C)C (some centres undefined) -7.96%
COCC1CCCN(Cc2ccc3c(c2)CN(C(=O)c2cccnc2OC)CCO3)C1 (centres undefined) -5.39%
COc1ccc2c(c1)CCc1cnc(-n3ncc(C(=O)NCCCc4ccncc4)c3C)nc1-2 6.88%
COc1ccc(CNc2ccnc(-c3ccc4c(c3)OCO4)n2)c(OC)c1 -3.14%
O=S(=O)(O)CCCS(=O)(=O)O 2.53%
CC(C)CN1CCC2(CC1)CCN(C(=O)c1cccc(F)c1)CC2 -7.34%
C=CCSCC(N)C(=O)O (centres undefined) -15.2%
COc1cc(NCCCC(C)N)c2ncccc2c1 (centres undefined) 4.09%
